Data published in publication PMC6919601, “Identification of Plasmodium dipeptidyl aminopeptidase allosteric inhibitors by high throughput screening” (PLoS ONE, 2019).
Out of some 110,000 compounds screened, about 230 (0.21%) showed an effect of 50% or more. The list shows a part of the results.

What follows are compounds tested against DPAP1 (Plasmodium falciparum, UniProt Q8IIJ9) (assay: primary screen, percent inhibition; read by cleavage of a fluorogenic dipeptide substrate; higher = more effect of the substance).
Sequence of DPAP1 (Q8IIJ9 whole entry, looked up): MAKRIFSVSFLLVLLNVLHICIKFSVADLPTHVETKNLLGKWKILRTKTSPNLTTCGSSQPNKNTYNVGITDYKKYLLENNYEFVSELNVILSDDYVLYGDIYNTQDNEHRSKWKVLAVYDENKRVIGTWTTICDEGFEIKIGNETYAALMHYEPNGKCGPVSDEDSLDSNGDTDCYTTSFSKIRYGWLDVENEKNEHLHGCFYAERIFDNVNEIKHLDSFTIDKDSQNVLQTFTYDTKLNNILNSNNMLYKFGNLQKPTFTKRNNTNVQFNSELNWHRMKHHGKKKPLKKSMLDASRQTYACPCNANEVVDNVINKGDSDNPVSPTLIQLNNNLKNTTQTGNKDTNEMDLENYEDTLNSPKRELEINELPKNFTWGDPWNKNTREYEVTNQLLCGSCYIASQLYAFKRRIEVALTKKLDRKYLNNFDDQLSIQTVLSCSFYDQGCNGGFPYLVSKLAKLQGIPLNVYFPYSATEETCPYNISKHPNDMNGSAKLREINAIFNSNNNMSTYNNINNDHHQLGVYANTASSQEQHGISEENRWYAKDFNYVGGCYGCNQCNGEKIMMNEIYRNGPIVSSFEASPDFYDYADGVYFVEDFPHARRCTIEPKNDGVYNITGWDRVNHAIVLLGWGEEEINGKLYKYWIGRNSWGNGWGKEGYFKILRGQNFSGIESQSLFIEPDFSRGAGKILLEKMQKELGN
Design: species or system P. falciparum D10 trophozoite lysates; single well
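Further: 30 min substrate incubation versus DMSO and 10 µM JCP410 controls.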

Compound	% Inhibition @ 10 uM
CN(CC(=O)N1CCc2ccccc2C1)S(=O)(=O)c1ccc(Cl)cc1	-1.81%
CCO/C(O)=C1/C(C)=Nc2ncnn2C1c1cc(OC)c(OC)cc1OC (stereo not shown)	-1.62%
CCOCCCNC(=O)c1ccc(CS(=O)(=O)c2c(Cl)cccc2Cl)o1	-1.05%
Cc1cc(NS(=O)(=O)c2ccc(NC(=O)c3cccs3)cc2)no1	12.1%
CCc1nonc1NC(=O)c1cccs1	1.67%
CC(=O)Nc1cccc(C(=O)N[C@@H](CC2CCCCC2)C(=O)NCC#N)c1	1.35%
CCCn1c2ccccc2c2cnn(CC(=O)NC3CCCc4ccccc43)c(=O)c21 (stereo not shown)	-3.76%
CCN(CC)S(=O)(=O)c1ccc(Cl)c(C(=O)NC2CCCCC2)c1	-3.42%
Cn1c(=O)c(C(=O)c2ccc(S(C)(=O)=O)c(Cl)c2Cl)c(O)c2ccccc21	1.43%
CC(=O)NCCNC(=O)CCCCn1c(=O)[nH]c2ccsc2c1=O	-5.67%
Cc1[nH]c2ccccc2c1SCCNC(=O)c1ccncc1	2.64%
CCOC(=O)C1=C(O)/C(=C\c2cccs2)N=C1C	-5.28%
Cc1cccc(CSc2nc3ccncc3n2CC(=O)NCC2CCCO2)c1 (stereo not shown)	-4.15%
O=C(c1cccc(F)c1)N1CCN(Cc2ccccc2C(F)(F)F)CC1	2.3%
O=[N+]([O-])c1ccc(-c2cn3cc(Cl)ccc3n2)cc1	-4.11%
CCCCOc1ccc(CN2CCC(C(=O)OCC)CC2)cc1	1.62%
O=C(Nc1cc(Cl)c(Cl)cc1Cl)c1cccnc1	0.827%
CN(C)CCN(Cc1ccccc1)Cc1ccsc1	-1.21%
CC1=NC2=C(C(=O)CCC2)C(c2ccccc2)/C1=C(/O)OC(C)C (stereo not shown)	-7.35%
O=C(NC12CC3CC(CC(C3)C1)C2)n1ncc2cc(Cl)ccc21	5.42%
O=C1C2CC=CCC2C(=O)N1c1ccc(Oc2ccccc2)cc1 (stereo not shown)	-2.34%
CC(C)CCNC(=O)c1cnn2c(C(F)(F)F)cc(-c3cccs3)nc12	1.16%
O=c1oc2ccccc2cc1-c1nnnn1-c1ccc(F)cc1	-1.07%
COc1ccc(Br)cc1/C=N/n1cnnc1	6.23%
CCOc1ccc(C2C(C#N)=C(N)Oc3cc(C)n(Cc4cccnc4)c(=O)c32)cc1 (stereo not shown)	3.42%
O=C1c2ccccc2-c2c1cnc1c(-c3ccccc3)cnn21	-5.66%
CC1CCCC(NC(=O)CCCn2c3ccccc3c3cnnc(O)c32)C1C (stereo not shown)	-0.281%
COc1ccc(Cn2c(SCc3ccc(C(=O)O)cc3)nc3cccnc32)cc1	1.63%
